Laboratory results from PMC4336329 (PLoS ONE, 2015).
Among all 310,000 compounds or so, about 14,000 (4.5%) showed an effect of 50% or more. The effect is printed as a negative number. This is one part of the list.

biological target: human ether-à-go-go-related gene (hERG) potassium channel (human, UniProt Q12809); assay: primary screen, population patch clamp on CHO cells stably expressing hERG
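Also: peak tail current of the secondary pulse compared with the same well before compound.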

Chain of human ether-à-go-go-related gene (hERG) potassium channel (Q12809 whole entry, looked up): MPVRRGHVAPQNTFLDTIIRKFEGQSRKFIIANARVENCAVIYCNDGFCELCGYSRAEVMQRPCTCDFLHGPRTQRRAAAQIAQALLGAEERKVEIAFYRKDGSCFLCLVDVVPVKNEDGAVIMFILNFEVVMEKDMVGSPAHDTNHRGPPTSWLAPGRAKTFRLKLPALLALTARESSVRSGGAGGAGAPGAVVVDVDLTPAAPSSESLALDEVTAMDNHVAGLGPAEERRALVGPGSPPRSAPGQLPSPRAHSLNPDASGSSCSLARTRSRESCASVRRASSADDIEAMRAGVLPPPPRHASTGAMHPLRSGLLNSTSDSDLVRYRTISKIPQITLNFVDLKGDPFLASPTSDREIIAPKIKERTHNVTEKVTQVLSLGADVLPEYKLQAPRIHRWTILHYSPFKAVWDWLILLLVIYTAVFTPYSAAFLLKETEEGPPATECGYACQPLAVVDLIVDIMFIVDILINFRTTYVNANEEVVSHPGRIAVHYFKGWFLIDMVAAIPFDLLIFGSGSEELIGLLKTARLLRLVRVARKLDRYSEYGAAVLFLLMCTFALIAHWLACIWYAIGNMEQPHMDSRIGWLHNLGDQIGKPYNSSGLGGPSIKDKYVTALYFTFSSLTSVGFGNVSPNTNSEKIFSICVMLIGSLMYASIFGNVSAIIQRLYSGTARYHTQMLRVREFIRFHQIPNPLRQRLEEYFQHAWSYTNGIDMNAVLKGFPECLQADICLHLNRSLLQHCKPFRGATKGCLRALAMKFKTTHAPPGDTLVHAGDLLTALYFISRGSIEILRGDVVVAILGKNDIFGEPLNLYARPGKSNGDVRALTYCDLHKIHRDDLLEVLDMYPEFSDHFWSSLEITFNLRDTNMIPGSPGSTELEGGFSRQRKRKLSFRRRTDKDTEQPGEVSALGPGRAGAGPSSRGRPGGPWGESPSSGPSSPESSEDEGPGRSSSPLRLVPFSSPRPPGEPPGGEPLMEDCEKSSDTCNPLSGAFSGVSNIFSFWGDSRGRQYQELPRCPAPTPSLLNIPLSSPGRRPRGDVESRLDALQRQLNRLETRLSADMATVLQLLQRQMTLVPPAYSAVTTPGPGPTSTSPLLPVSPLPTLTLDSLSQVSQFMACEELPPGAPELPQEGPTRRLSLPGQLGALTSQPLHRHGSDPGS

Compared with `COCCNc1nc(C)cc(-c2cc(C(=O)NCc3ccccc3)on2)n1`, `COCCNC(=O)COc1cc(=O)n(C)c2ccccc12` is lower in “hERG current change (%, negative = inhibition) at 10uM” value: 1.21% for the first, -17% for the second.

Going from `COc1ccccc1CCN1CCCC(CN(C)C(=O)CCC(=O)N(C)C)C1` (centres unmarked) to `CCOC(=O)N1CCC(N(CCN(C)C)C(=S)Nc2ccccc2OCC)CC1`, the “hERG current change (%, negative = inhibition) at 10uM” value falls from 9.14% to -8.05%.

Going from `O=C1NC2(CCc3ccccc3C2)C(=O)N1CCOc1cccc(Cl)c1` (centres unmarked) to `Cc1cccc(OCC(=O)N2CCCc3ccccc32)c1`, the “hERG current change (%, negative = inhibition) at 10uM” value rises from -51.1% to 8.85%.

Compared with `O=C(Cc1cccc2ccccc12)NCCOc1ccccc1F`, `COc1ccc2nc(NC(=O)Nc3cccc4ccccc34)sc2c1` is lower in “hERG current change (%, negative = inhibition) at 10uM” value: 11.3% for the first, 5.51% for the second.

Going from `CCOc1ccc(NC(=O)c2ccc(NC(=O)COC(=O)c3ccc(NC(=O)CC#N)cc3)cc2)cc1` to `COc1ccc(NC(=O)CCc2nc(-c3ccccc3F)no2)cc1`, the “hERG current change (%, negative = inhibition) at 10uM” value falls from 4.72% to -2.68%.

First: Cn1c(=NC(=O)c2ccc(S(=O)(=O)N3CCCc4ccccc43)cc2)sc2cc(S(C)(=O)=O)ccc21
Second: CCc1cccc2cc3c(N)c(C(=O)Nc4ccc(S(=O)(=O)N5CCCC5)cc4)sc3nc12
The “hERG current change (%, negative = inhibition) at 10uM” value of the first is higher: 15.8% for the first, 2.65% for the second.

First: O=Cc1[nH]c2ccccc2c1N(C(=O)CCl)c1ccc([N+](=O)[O-])cc1
Second: CCOP(=O)(c1ccccc1)C(O)c1ccc([N+](=O)[O-])cc1 (centres unmarked)
The “hERG current change (%, negative = inhibition) at 10uM” value of the first is lower: -41.9% for the first, 15.8% for the second.

Going from `O=S(=O)(Nc1ccc(O)c(Sc2nc3ccccc3s2)c1)c1cccc2ccccc12` to `CCc1cccc(CC)c1NC(=O)C1SC(=Nc2ccccc2C)C(c2nc3ccccc3s2)=C1N` (centres unmarked), the “hERG current change (%, negative = inhibition) at 10uM” value rises from 6.48% to 29.1%.

Going from `N#Cc1c(Nc2ccc(F)cc2)sc(C(=O)c2ccc(F)cc2)c1N` to `COc1ccccc1N1CCN(Cc2nc(N)nc(Nc3ccc(C)cc3)n2)CC1`, the “hERG current change (%, negative = inhibition) at 10uM” value falls from -7.68% to -50.3%.

Compared with `Cc1ccc(-c2nnn(CC(=O)N(CCN3CCOCC3)C(C(=O)NC(C)(C)C)c3ccc(C)o3)n2)cc1` (centres unmarked), `COc1ccccc1NC(=S)N(CCCN1CCOCC1)Cc1cccs1` is lower in “hERG current change (%, negative = inhibition) at 10uM” value: -20.6% for the first, -35.6% for the second.

First: O=C(NCc1cccnc1)c1ccc(Cl)c(S(=O)(=O)N2CCCCCC2)c1
Second: Cc1cc(OCc2cccc(S(=O)(=O)N3CCOCC3)c2)ccc1Cl
The “hERG current change (%, negative = inhibition) at 10uM” value of the first is lower: -36.2% for the first, -9.12% for the second.

Compared with `CCCCN(CC)C(=O)Cn1cnc2sc(C)c(S(=O)(=O)N3CCC(C)CC3)c2c1=O`, `CCOC(=O)C1CCN(S(=O)(=O)c2ccc3oc(=O)ccc3c2)CC1` is lower in “hERG current change (%, negative = inhibition) at 10uM” value: -45.9% for the first, -77% for the second.

First: COc1ccc(S(=O)(=O)N2CCOCC2)cc1NC(=O)CCc1cc(OC)c(OC)c(OC)c1
Second: COc1ccc(CNC(=O)CNS(=O)(=O)c2cccc(C#N)c2)cc1OC
The “hERG current change (%, negative = inhibition) at 10uM” value of the first is lower: -2.96% for the first, 16.2% for the second.

First: Cc1nc2ccccc2nc1CSc1nncs1
Second: CC(=O)Nc1sc(N)nc1-c1ccccc1
The “hERG current change (%, negative = inhibition) at 10uM” value of the first is higher: 5.39% for the first, 2.61% for the second.

First: Cc1ccccc1CN1CCNCC1.Cl
Second: CCN(CC)C(=O)C1CCCN(Cc2ccccc2C(F)(F)F)C1 (centres unmarked)
The “hERG current change (%, negative = inhibition) at 10uM” value of the first is higher: 14% for the first, -0.468% for the second.

Compared with `Cc1cc(OC(=O)c2ccccc2C)c([N+](=O)[O-])c(=O)[nH]1`, `COc1ccc([N+](=O)[O-])cc1NC(=O)c1csc(C)c1` is lower in “hERG current change (%, negative = inhibition) at 10uM” value: 9.67% for the first, 1.03% for the second.

Compared with `CN(CC(=O)Nc1cccc(F)c1)C(=O)c1cc([N+](=O)[O-])ccc1N1CCOCC1`, `Cc1ccc(SCC(=O)Nc2ccc(F)cc2[N+](=O)[O-])cc1C` is higher in “hERG current change (%, negative = inhibition) at 10uM” value: -23.1% for the first, 11.7% for the second.

Compared with `COCCNC(=O)CSc1nc2cc(OC)c(OC)cc2c(=O)n1Cc1ccc(OC)cc1`, `COc1cc2c(cc1OC)C(C(=O)Nc1cc(C)c(OC)c(C)c1)CC(=O)N2` (centres unmarked) is higher in “hERG current change (%, negative = inhibition) at 10uM” value: -6.36% for the first, 13.4% for the second.

Going from `Cc1ccccc1CN1C[C@@H]2C[C@@H](c3cn[nH]c3-c3ccccc3)N3CCC[C@@]23C1=O` to `CC(=O)c1cc(-c2ccccc2)n(CC(=O)NC2CCCCC2)c1C`, the “hERG current change (%, negative = inhibition) at 10uM” value rises from -5.95% to 16%.

First: CCNC(=S)N(Cc1ccco1)Cc1cc2cc(OCC)ccc2[nH]c1=O
Second: CCCOc1ccc(/C=N/NC(=O)CSCc2ccc([N+](=O)[O-])cc2)cc1OCC
The “hERG current change (%, negative = inhibition) at 10uM” value of the first is higher: 0.36% for the first, -32.4% for the second.

First: c1ccc2c(c1)CCCN2c1nc(N2CCOCC2)nc(N2CCOCC2)n1
Second: Cc1nn2c(N3CCN(C)CC3)c3c(nc2c1-c1ccccc1)CCCC3
The “hERG current change (%, negative = inhibition) at 10uM” value of the first is higher: -6.93% for the first, -26.1% for the second.

First: CC(Sc1ncc(C(F)(F)F)cc1Cl)C(=O)NC(N)=O (centres unmarked)
Second: O=C(COC(=O)c1cc(-c2ccccc2Cl)nc2ccccc12)Nc1ncc(C(F)(F)F)cc1Cl
The “hERG current change (%, negative = inhibition) at 10uM” value of the first is higher: 0.58% for the first, -10.9% for the second.

Compared with `O=S(=O)(c1cccs1)N1CCN(c2ccccc2)CC1`, `O=C(c1cnn2cccnc12)N1CCN(c2ccccc2)CC1` is higher in “hERG current change (%, negative = inhibition) at 10uM” value: 15.5% for the first, 20% for the second.

First: COc1ccc(Br)cc1C(=O)N/N=C/c1cccnc1
Second: COc1ccc(/C=N/NC(=O)CCc2ccccc2)cc1O
The “hERG current change (%, negative = inhibition) at 10uM” value of the first is lower: -8.72% for the first, -1.34% for the second.

First: CCCCOc1ccc(CSC(=N)N)cc1[N+](=O)[O-].Cl
Second: CCC(C)[C@H]1CN=C(N)N1CCc1cccc(F)c1 (some centres unmarked)
The “hERG current change (%, negative = inhibition) at 10uM” value of the first is lower: -64.1% for the first, -14.5% for the second.

Compared with `COc1ccc(CNC(=O)CC2(CC(=O)O)CCCCC2)cc1`, `CCOC(=O)C1(Cc2cccc(OC)c2)CCN(Cc2ccccc2)CC1` is lower in “hERG current change (%, negative = inhibition) at 10uM” value: 15.8% for the first, -40.3% for the second.

Compared with `COc1ccc(-c2[nH]ncc2CN(C)Cc2nonc2C)c(OC)c1`, `CCOC(=O)C1=C(C)Nc2nc(SCC)[nH]c(=O)c2C1c1ccncc1` (centres unmarked) is lower in “hERG current change (%, negative = inhibition) at 10uM” value: 16.8% for the first, -7.65% for the second.

First: CC(C)NC(=O)NC(=O)COC(=O)CCOc1ccccc1
Second: CC(OC(=O)[C@H](C)NC(=O)c1ccccc1Cl)C(=O)NCc1ccc2c(c1)OCO2 (some centres unmarked)
The “hERG current change (%, negative = inhibition) at 10uM” value of the first is higher: 2.07% for the first, -21.7% for the second.

First: Cc1cccc(-n2nc(CC#N)c(C#N)c2N)c1
Second: Cc1cc(NC(=O)Nc2ccc(F)cc2F)n(C)n1
The “hERG current change (%, negative = inhibition) at 10uM” value of the first is higher: 27.5% for the first, 0.632% for the second.

Compared with `CS/C(=C/[N+](=O)[O-])Nc1cccc2c1C(C)CC2(C)C` (centres unmarked), `Cn1ncc(Cl)c1C(=O)NNC(=O)Nc1cccc2ccccc12` is higher in “hERG current change (%, negative = inhibition) at 10uM” value: -10.1% for the first, 7.09% for the second.

Going from `CN(C)C(=O)CSc1nnc(-c2ccc(S(=O)(=O)N3CCCC3)cc2)n1C` to `CCOc1ccc(-c2nnc(SCC(=O)N3CCCC3)o2)cc1`, the “hERG current change (%, negative = inhibition) at 10uM” value falls from 20.5% to 6.58%.

Compared with `CN(C)NC(=S)NC1(C)CCS(=O)(=O)C1` (centres unmarked), `Cc1ccc(N2C(=O)C(O)(C(F)(F)F)C3=C2CC(C)(C)CC3=O)cc1C` (centres unmarked) is higher in “hERG current change (%, negative = inhibition) at 10uM” value: 2.72% for the first, 13.3% for the second.

Going from `CCNS(=O)(=O)c1ccc(Br)c(OC)c1` to `Cc1ccc(NC(=O)COc2ncnc3sccc23)cc1S(=O)(=O)N(C)C`, the “hERG current change (%, negative = inhibition) at 10uM” value falls from 10.4% to -24.7%.

Going from `Cn1c(NC(=O)c2ccccc2)c(-c2cccs2)c(=O)c2ccccc21` to `CCn1c2ccccc2c2cc(NC(=O)CN3CCCC3)ccc21`, the “hERG current change (%, negative = inhibition) at 10uM” value falls from 7.07% to -8.17%.

First: Cc1ccc(C2=CSC3=NNC4(CCCCC4)NN23)cc1
Second: CC(CN1CCCCC1)OC(=O)C1c2ccccc2Oc2ccccc21.Cl (centres unmarked)
The “hERG current change (%, negative = inhibition) at 10uM” value of the first is higher: 4.72% for the first, 1.68% for the second.

First: CCOc1cc(/C=C2\CCCc3c2nc2ccccc2c3C(=O)O)ccc1OC
Second: N#Cc1cc2c(nc1SCc1ccccc1)CCCC2=O
The “hERG current change (%, negative = inhibition) at 10uM” value of the first is higher: 8.29% for the first, 0.242% for the second.

Going from `CC(/C=C1\SC(=S)N(CC(=O)O)C1=O)=C\c1ccccc1` to `CN1C(=O)SC(Nc2ccccc2)C1=O` (centres unmarked), the “hERG current change (%, negative = inhibition) at 10uM” value falls from 11.5% to 9.1%.

Compared with `CCn1c(COc2ccc(Cl)cc2)nnc1SCC(=O)Nc1ccc2c(c1)OCCO2`, `CNC(=O)NC(=O)CSc1nnc(-c2ccco2)n1Cc1ccccc1` is lower in “hERG current change (%, negative = inhibition) at 10uM” value: 12.3% for the first, -8.53% for the second.

Compared with `CC(C)C(c1nnnn1C1CCCC1)N1CCOCC1` (centres unmarked), `COc1cccc(C(c2nnnn2CC2CCCO2)N2CCN(C(=O)c3ccco3)CC2)c1OC.Cl` (centres unmarked) is lower in “hERG current change (%, negative = inhibition) at 10uM” value: 12.1% for the first, 3.65% for the second.

First: Cc1cc(OCC(=O)N2CCC(C(=O)O)CC2)c2c3c(c(=O)oc2c1)CCC3
Second: O=C(Nc1ccc(Br)cc1Br)c1cccc2c1C(=O)N(C1CCCCC1)C2
The “hERG current change (%, negative = inhibition) at 10uM” value of the first is lower: -0.237% for the first, 12.8% for the second.

Compared with `CC(C)CCn1nnnc1CN1CCN(C(c2ccccc2)c2ccccc2)CC1`, `O=C(COc1ccccc1)N1CCN(C/C=C/c2ccccc2)CC1` is lower in “hERG current change (%, negative = inhibition) at 10uM” value: 8.15% for the first, -58.1% for the second.

First: O=C(NNC1=NCCC1)c1ccc(Br)cc1
Second: O=C(Cc1ccccc1)NNC(=O)Nc1ccc(Cl)c(Cl)c1
The “hERG current change (%, negative = inhibition) at 10uM” value of the first is lower: -0.881% for the first, 18.5% for the second.

Going from `NNC(=O)c1nc(-c2cccc(-n3cccc3)c2)no1` to `O=C(N/N=C/c1ccncc1)c1cccs1`, the “hERG current change (%, negative = inhibition) at 10uM” value rises from -0.727% to 8.3%.

Going from `O=C(Nc1ccc2nsnc2c1)C1CC1` to `CC/C(C)=N\N=C\c1c(O)n(CC)c2cc(C3=NNC(=O)CC3)ccc12`, the “hERG current change (%, negative = inhibition) at 10uM” value falls from 1.46% to -13.7%.

For `CN1CCN(c2oc(/C=C/c3ccccc3)nc2C#N)CC1`, the “hERG current change (%, negative = inhibition) at 10uM” value was -53.7%.
